Results published in the RNAGym collection of RNA variant scans (doi:10.1073/pnas.2313332121).
Variants at the background level are over-represented here.

B1: TPR 5TU (parent)
chain: GGAUCUUCUCGAUCUAACAAAAAAGACAAAUCUGCCACAAAGCUUGAGAGCAUCUUCGGAUGCAGAGGCGGCAGCCUUCGGUGGCGCGAUAGCGCCAACGUUCUCAACUAUGACACGCAAAACGCGUGCUCCGUUGAAUGGAGUUUAUCAUG

Variants of: B1
Experiment: polymerase ribozyme fitness, log enrichment relative to wild type (log ratio); higher = more active; in vitro selection for triplet polymerase activity
In short: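 Both subunits of a heterodimeric triplet polymerase ribozyme were given their own mutant library, built by PCR and transcribed. Each library was annealed with a biotinylated primer, the partner subunit and triplets, incubated frozen at −7 °C, and its extended constructs gel-excised, captured on streptavidin beads and amplified by RT-PCR, all in one round done in triplicate. Fitness is the logarithm of genotype enrichment relative to wild-type enrichment, with replicates averaged by inverse-variance weighting. That logarithm is base 2, and Illumina-sequenced genotypes needed ≥10 input reads and ≥1 read per output.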

Variant | polymerase ribozyme fitness (log ratio)
GGAUCUUCUCGAUCUAAAAAAAAAGACAAAUCUGCCACAAAGCUUGAGAGCAUCUACCGAUGCAGAGGCGGCAGCCUUCGGUGGCGCGAUAGCACCAACGUUCUCAACUAUGACACGCAAAACGCGUGCUCCGUUGAAUGGAGUUUAUCAUG | -0.964
GGAUCUUCUCGAUCUAAGUAAACAGACAAAUCUGCCACAAAGCUUGAGAGCAUCUUCGGAUGCAGACGCGGCAGCCUUCGGUGGCGCGAUAGCGCCAACGUUCUCAACUAUGACACGCAAAACGCAUGCUCCGUUGAAUGGAUCUUAUCAUG | ≤ -4.2
GGAUCUUCUCGAUCUAAGUAAAAAGACAAAUCUGCCACAAAGCUUGAGAGCAUCUUCGGAUGCAGAGGCGGCAGCCUUCGGUUGCGCGAUAGCGUCAACGUUCUCAACUAUGACACGUAAAACGCGUGCUCCGUUGAAUGGAGAUUAUCAUG | -3.01
GGAUCUUCUCGAUCUAAGACAAAAGACAAAUCUGCCACAAAGCUUGAGAGCGUCUUCGGAUGCAGAGGCGGCUGCCUUCGGUGGCGCGAUAGCGCCAACGUUCUCAACUAUGACACGCAGAACGCGUGCUCCGUUGAAUGGAGUUUAUCAUG | -3.02
GGAUCUUCUCGAUCUAAGAUUAAAGACAAAUCUGCCACAAAGUUUUAGAGCAUCUUCGGAAGCCAAGGCGGCAGCCUUCGGUGGCGCGAUAGCGCCAACGUUCUCAACUAUGACACGCAAAACGCGUGCUCCGUUGAAUGGAGUUUAUCAUG | ≤ -4.2
GGAUCUUCUCGAUCUAAGAUAAAAGACGAAUCUGCCACAAUGCUUGAGAGCAUCUUCGGAUGCAGAGGCGGCAGCCUUCGGUGGCGCGAUAGCGCCAACGUUCUCAACUAUGACACGCAAAACGCGUGCUCCGUUGAAUGGAGUUUAUCAUG | ≤ -4.2
GGAUCUUCUCGAUCUAAGAACACAGACAAAUCUGCCACAAAGCUUGAGAGCAUUUUCGGAUGCAGAGGCGGAAGCCUUCGGGGGCGCGAUAGGGCGAACGUCCUCAACUAUGACACGCAAAACGCGUGCUCCGUAGAAUGGAGUUUAUCAUG | ≤ -4.2
GGAUCUUCUCGAUCUAAGAAGAAAGACAAAUCUGCCACAAAGCUUGAGAGCAUCUUCGGAUGCAGAGGCGGCAGCCUUCGGUGGCGCGAUAGCGCCAACGUUCUCAACUAUGACACGCAAAACGCGUGCUCCGUUGAAUGGAGUUUAUCAUG | -0.433
GGAUCUUCUCGAUCUAAGAAAUAAGACAAAUCUACCACUAAGCUUGAGAGCAUCUUCGGAUGCAGAGGCGGUAGCCUUCGCUGGCGCGAUAGCGCUAACGUUCUCACCUAUGACACGCAAAACGCGUGCUCCGUUGAAUGGAGUUUAUCAUG | ≤ -4.2
GGAUCUUCUCGAUCUAAGAAAACAGACGAAUCUGCCACAAAGCUUGAGAUCAACUUCGGAUGCAGAGGCGGCAGCCUUCGGUGGGGCGAUAUCGCCAACGUUCUCAACUAUGACACGCAAAACGCGUGCUCCGUUGAAUGGAGUUUAUCAUG | ≤ -4.2
GGAUCUUCUCGAUCUAAGAAAAUAGACAAAUCUGCCACAAAGCUUGAGAGCAUCUUCGGAUGCAGAGGCGGCAGCCUUCGGUGGGGCGAUAGCGCCAACGUUCUCAACUAUGACACGCAAAACGCGUGCUCCGUUGAAUGGAGUUUAUCAUG | ≤ -4.2
GGAUCUUCUCGAUCUAAGAAAAUAGACAAAUCUGCCACAAAGCUUGAGAGCAUCUUCGAAUGCAGAGUCGGCAGCCUUCGGUGGCGAGAUAGCGCCAACGUUCUCAACUAUGACACGCAAAACGCGUCCUCCGUUGAAUGGAGUUUAUCAUG | ≤ -4.2
GGAUCUUCUCGAUCUAAGAAAAACGACAAAUCUACCACAAAGCUUGAGAGCAUCUUAGGAUGCAGAGGCGGCAGCCUUCGGUGGUGCGUUAGCGCCGACGUUCUCAACUAUGACACGCAGUACGCGUGCUCCGUUGAAUGGAGUUUAUCAUG | ≤ -4.2
GGAUCUUCUCGAUCUAAGAAAAAGGACAAUUCUGCCACAAAGCUUGAGAGCAUCAUCGGAUGCAGAGGCGGCAGCCUACGGUGGUCCGAUAGCGCCAACGUUCUCAACUAUGACACGCAAAACGCGUGCUCCGUUGAAUUGAGUUUAUCAUG | ≤ -4.2
GGAUCUUCUCGAUCUAAGAAAAAUGACAAAUCUGCCACAAAGCUUGCGAGCAUCUUCGGAUGCAGAGGCGGCAGCCUACGGUGUCGCGAUAGCGCCAACGUUCUCAACUAUGACAUGCAAAACGCGUGCUCCGUUGAAUGGAGUUUAUCAUG | ≤ -4.2
GGAUCUUCUCGAUCUAAGAAAAAUGACAAAUCUGCCACAAAGCUUGAGAGCAUCUUCGGAUGCAGAGGCGGCAGCCUUCGGUGGCGAGAUAGCGCCAACGUUCUCAACUAUGACACGCAAAAUGCGUGCUCCAUUGAAGGGAGUGUAUCAUG | ≤ -4.2
GGAUCUUCUCGAUCUAAGAAAAAUGACAAAUCUGCCACAAAGCUUGAGAGCAUCUUCGGAUGCAGAGGCGGCAGCCUUCGGUGGCGCGAUAGCGCGAACGUUCGCAACUAUGUCAUGCAAAACGCGUGCUCCGUUGAAUGGAGUUUAUCAUG | ≤ -4.2
GGAUCUUCUCGAUCUAAGAAAAAUGACAAAUCAGCCACAAAGCUUGAGAGCAUCUUCGGAUGCAGAGGCGGCAGCCUUCGGUGGCGCGAUAGCGCCAACGUUCUCAACUAUGACACGCAAAACACGUGCUCCGUAGAAUGGAGUUUAUCAUG | ≤ -4.2
GGAUCUUCUCGAUCUAAGAAAAAAGCCAAAUCUGCCACAAAGCUUGAGAGCAUAUUCGGAUACAGAGGCGGCAGCGUUCGGUGGCGAGAUAGCGCCCACGUUCUCAACUAUGACACGCAAAACGCGUGCUCCGUUGAAUGGAGUUUAUCUUG | ≤ -4.2
